Results reported in PubChem BioAssay AID624417 (National Center for Advancing Translational Sciences (NCATS), 2012).
The campaign covered roughly 410,000 compounds. About 6,400 (1.6%) were called active. Inconclusive means that the source gave no clear call. Such entries were picked first, then a sample of the others. Calls follow the shape of the dose curve; as a rule, active = well fitted inhibition curve with a large enough effect; inconclusive = small, poorly fitted or top-dose-only effect; inactive = no such curve, though single readings can be large or run the other way. Potencies of inconclusive entries are left out as doubtful fits.

Biological target: Glucagon-like peptide 1 receptor (Homo sapiens) (UniProt P43220)
Assay: qHTS of GLP-1 Receptor Inverse Agonists (Inhibition Mode); also: nearly all actives have a fitted effect of over 55% in size
Conditions: HEK293 GLP-1R CRE-luciferase, luminescence, 24 h, GLP-1R form is constitutively active; activity change, negative = inhibition: at 38.3 µM (top of the series) unless noted
How it was run: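 Seeding at 200 cells/uL, 12 h culture, 24 hr compound treatment, then luciferase reagent and a luminescence read; cells are HEK293 stably expressing a constitutively active GLP-1R plus cAMP-responsive luciferase.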
% is scaled to controls: 0 for no effect and ±100 for the full control effect; potency is read from the fitted curve at half-maximal effect; tags tell the direction and shape of the fitted curve.

Chain of UniProt P43220 (P43220 whole entry, looked up): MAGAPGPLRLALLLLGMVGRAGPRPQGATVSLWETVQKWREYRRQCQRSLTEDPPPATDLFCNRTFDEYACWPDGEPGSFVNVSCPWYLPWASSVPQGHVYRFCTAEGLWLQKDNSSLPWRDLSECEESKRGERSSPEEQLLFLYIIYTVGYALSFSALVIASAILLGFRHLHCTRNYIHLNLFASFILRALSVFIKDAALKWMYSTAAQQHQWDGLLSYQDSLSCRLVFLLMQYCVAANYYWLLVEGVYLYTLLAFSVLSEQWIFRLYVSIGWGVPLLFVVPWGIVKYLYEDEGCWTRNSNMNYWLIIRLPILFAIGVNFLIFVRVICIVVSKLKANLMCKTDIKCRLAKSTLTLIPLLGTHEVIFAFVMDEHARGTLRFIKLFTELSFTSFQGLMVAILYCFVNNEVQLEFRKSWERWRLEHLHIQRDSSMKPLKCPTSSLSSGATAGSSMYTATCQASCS

| Compound | Potency | activity change, negative = inhibition |
| --- | --- | --- |
| CCOc1ccc(-n2nnnc2SCC(=O)c2ccccc2)cc1 | inconclusive [inhibitor, single point] |  |
| COc1ccc2[nH]c(CN3CCN(CC=C(C)C)C(CCO)C3)c(C)c2c1 (stereo unspecified) | inconclusive [inhibitor, single point] |  |
| Cc1cc2c(cc1C)NC(c1c(C)n(C)n(-c3ccccc3)c1=O)C1=C(CC(C)(C)CC1=O)N2 (stereo unspecified) | inconclusive [inhibitor, single point] |  |
| C[C@@H](c1ccccc1)N1C[C@@H](COCc2ccccc2)Oc2cc(N3CCC[C@H]3CO)ccc2S1(=O)=O | inconclusive [inhibitor, single point] |  |
| CC(C)(C)NS(=O)(=O)c1cccc(S(=O)(=O)c2cccc(S(=O)(=O)NC(C)(C)C)c2)c1 |  | inactive: -4.13% |
| CCCCC(CC)C(=O)Nc1ccc(Nc2ccccc2)cc1 (stereo unspecified) | inconclusive [inhibitor, full curve, poor fit] |  |
| CC(C)(C)NC(=O)CSc1nc(Cc2ccccc2)nc2ccccc12 | inconclusive [inhibitor, partial curve, poor fit] |  |
| CC(NC(=O)CN1CCN(CC(=O)Nc2ccccc2Cl)CC1)c1ccc(Br)cc1 (stereo unspecified) | inconclusive [inhibitor, partial curve] |  |
| COc1cccc(CNC(=O)C(=O)NCCC2CCCCN2S(=O)(=O)c2cccs2)c1 (stereo unspecified) | inconclusive [inhibitor, single point] |  |
| Cc1ccc(C(=O)C(C)OC(=O)CCN2C(=O)C3C4C=CC(C5CC45)C3C2=O)cc1 (stereo unspecified) | inconclusive [inhibitor, partial curve, poor fit] |  |
| Cc1ccc(OCC(O)Cn2c(=N)n(Cc3ccccc3)c3ccccc32)cc1 (stereo unspecified) | active: 11.2 µM |  |
| O=S1(=O)[C@H]2C[C@H](CO)O[C@@]2(CO)CN1Cc1ccc(-c2ccc(F)cc2)cc1 |  | inactive: -17.6% |
| CC(C)C1O/C(=N/C(=O)Nc2ccc(Cl)c(Cl)c2)NC1=O (stereo unspecified) |  | inactive: 2.16% |
| Cc1ccccc1CS(=O)(=O)c1ncc(Cl)c(C(=O)Nc2nnc(C(C)C)s2)n1 | inconclusive [inhibitor, single point] |  |
| Fc1cccc(Cc2c(-c3ccco3)nc3ccc(Br)cn23)c1 | inconclusive [inhibitor, partial curve] |  |
| CCc1ccc(N2C(=O)CC(Cn3nc(C)cc3C)C2=O)cc1 (stereo unspecified) |  | inactive: 6.8% |
| O=C(OCc1ccccc1)N1CCC2CC1c1cc(N3CCOCC3)ccc12 (stereo unspecified) | inconclusive [inhibitor, single point] |  |
| Cc1oc(-c2cccc(Br)c2)nc1CSc1nc2ncccc2[nH]1 |  | inactive: 6.38% |
| COc1cccc(/C=N/NC(=O)c2nnn(-c3nonc3N)c2C(C)C)c1 | inconclusive [inhibitor, partial curve, poor fit] |  |
| O=C(c1cccc(Cl)c1)N1CCN(Cc2c[nH]c3ccccc23)CC1 | inconclusive [inhibitor, single point] |  |
| C=CCN1C(=O)C(CC(=O)NCC)SC1=Nc1cc(Cl)ccc1Cl (stereo unspecified) | inconclusive [inhibitor, single point] |  |

| Compound | Potency | activity change, negative = inhibition |
| --- | --- | --- |
| COCC(=O)O[C@]1(CCN(C)CCCc2nc3ccccc3[nH]2)CCc2cc(F)ccc2[C@@H]1C(C)C | inconclusive [inhibitor, single point] |  |
| O=C(Nc1nnc(C2=COCCO2)o1)c1ccc(S(=O)(=O)N2CCCCC2)cc1 |  | inactive: 10.2% |
| COCCN(Cc1ccc(OC)cc1)c1c(C)nc2ccc(C(=O)NCCc3c[nH]c4ccccc34)cn12 | inconclusive [inhibitor, partial curve, poor fit] |  |
| O=S(=O)(c1ccc(-c2cc(C(F)(F)F)on2)s1)N1CCCC1 | inconclusive [inhibitor, single point] |  |
| O=C(N[C@@H]1CCC(=O)N(CC[C@H](Sc2ccccc2)c2ccccc2)CC1)OCc1ccccc1 | inconclusive [inhibitor, partial curve, poor fit] |  |
| COc1ccc(C(=O)C2CCCN(C(=O)c3cccc(Cn4cccn4)c3)C2)cc1F (stereo unspecified) |  | inactive: 14.5% |
| CC(C)CNc1ncnc2c1cnn2Cc1ccc(Cl)cc1 | inconclusive [inhibitor, partial curve, poor fit] |  |
| CCN(CC)C(=O)C1CCCN(C(=O)c2cc(COc3cccc(OC)c3)on2)C1 (stereo unspecified) |  | inactive: -4.74% |
| CCc1cccc(CC)c1NC(=O)C1CSC2(C)CCC(=O)N12 (stereo unspecified) |  | inactive: 2.13% |
| O=c1c2c3c(sc2n(CCN2CCCC2)c(=O)n1Cc1ccco1)CCCCC3 | inconclusive [inhibitor, single point] |  |
| COc1ccc2sc(-c3ccccc3OC)c(-c3ccc(OC)c(F)c3)c2c1 | inconclusive [inhibitor, partial curve, poor fit] |  |
| O=C(Nc1ccccc1N1CCCCC1)C1CCN(S(=O)(=O)c2ccccc2C(F)(F)F)CC1 | active: 7.94 µM |  |
| CC(NC(=O)c1ccco1)C(c1cccs1)N1CCN(c2ccccc2)CC1 (stereo unspecified) | inconclusive [inhibitor, partial curve, poor fit] |  |
| COc1ccc(-n2ccnc2SCC(=O)NCc2ccccc2)c(OC)c1 |  | inactive: -5.57% [at 7.66 µM] |
| Cc1ccc(Cc2c(-c3ccccc3)nc3cc(C)ccn23)cc1 | inconclusive [inhibitor, partial curve, poor fit] |  |
| COc1ccc(-c2c(-c3ccc4c(c3)OCO4)c3ccccc3n2C)cc1 | inconclusive [inhibitor, partial curve, poor fit] |  |
| c1ccc(CSc2ccc(-c3cccnc3)nn2)cc1 |  | inactive: 42.4% |
| CN(C)c1ccc(/C=N/NC(=O)c2cc(-c3ccc4c(c3)OCO4)n[nH]2)cc1 | inconclusive [inhibitor, full curve] |  |
| O=C(CN1CCCSc2ccccc21)N1CCN(S(=O)(=O)c2cccc(F)c2)CC1 | inconclusive [inhibitor, single point] |  |
| COc1ccc(C(Nc2ccccn2)c2c(NC(=O)c3ccco3)sc(C)c2C)cc1 (stereo unspecified) | inconclusive [inhibitor, single point] |  |
